Source: PubChem BioAssay AID686971 (National Center for Advancing Translational Sciences (NCATS), 2013)
In all, about 360,000 compounds went through this assay and about 7,500 (2.1%) were called active. This list was built around the results that the source calls inconclusive (neither active nor inactive); the mix of calls is not that of the screen. The call rests on the fitted dose curve; in most records, active means well fitted cell-killing curve with a large enough effect; inconclusive means small, poorly fitted or top-dose-only effect, or effect the other way, or another doubt; inactive means no such curve, though single readings can be large or run the other way. No potency is given beside an inconclusive call; the fits are too rough.

Test: qHTS for induction of synthetic lethality in tumor cells producing 2HG: qHTS for the HT-1080-IDH1KD cell line;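 on activity, negative = toxicity: 0% = DMSO wells and -100% = cell-free medium wells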
Settings: HT-1080 IDH1 knockdown viability, ATP luminescence, 48 h; activity, negative = toxicity: at 46.1 µM (top of the series) unless noted
Procedure, shortened: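 Viability of IDH1-knockdown HT-1080 fibrosarcoma cells was assessed by CellTiter-Glo after 48 h at 37 °C with titrated compound; concentration-effect curves were classified by fit quality and response size.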
Potency means the concentration at half of the fitted maximal effect; tags describe the fitted curve by direction and shape.

| SMILES | activity, negative = toxicity | Potency |
| --- | --- | --- |
| CC(=O)Nc1c(Cl)c2c(c(Cl)c1Br)-c1ccc(Cl)cc1C2 | inactive: -8.46% |  |
| CCC(C(=O)Nc1ccccc1Cl)n1nc(C)c2c(C)n(-c3ccccc3)nc2c1=O (stereo not given) |  | inconclusive [rising, single point] |
| COc1cc(C)ccc1OCc1cc(C(=O)N2CCN(C)C[C@@H]2c2ccccc2)no1 | inactive: -0.829% |  |
| CC(C(=O)Nc1sc2c(c1C(=O)NCc1ccco1)CCCC2)N1C(=O)c2ccccc2C1=O (stereo not given) |  | inconclusive [cytotoxic, single point] |
| CCn1c(=O)c(C(=O)NC(C)C)c(O)c2ccccc21 |  | inconclusive [cytotoxic, single point] |
| CCN(CC(=O)Nc1c(F)cccc1F)C(=O)CCC(=O)c1ccc(F)cc1 | inactive: -0.333% |  |
| CC1(C)CC(N=Cc2c(O)n(Cc3ccc4c(c3)OCO4)c(=O)c3ccccc23)CC(C)(C)N1 |  | active: 7.31 µM |
| Clc1ccc2[nH]c3c(NCCCN4CCOCC4)ncnc3c2c1 |  | inconclusive [cytotoxic, single point] |
| NC(=O)C1CCN(C(=O)COc2ccc3ccc(=O)oc3c2)CC1 | inactive: 9.41% |  |
| Cc1ccc([C@H]2C[C@H](O)[C@@H](n3cc(-c4ccc(F)cc4)nn3)CN2Cc2cccs2)cc1 |  | inconclusive [cytotoxic, partial curve] |
| COc1ccc(CC(=O)Nc2ccc(-c3cn4ccccc4n3)cc2)cc1OC |  | inconclusive [cytotoxic, single point] |
| COc1ccc(C(O)c2nc(-c3ccc(Cl)cc3)cs2)cc1 (stereo not given) |  | inconclusive [cytotoxic, single point] |
| CC(=O)c1cn(CC(=O)Nc2ccccc2F)c2ccccc12 | inactive: -6% |  |
| CCCCOC(=O)c1ccc(NC(=O)Nc2ccc(OC)c(OC)c2)cc1 |  | inconclusive [cytotoxic, single point] |
| CCOc1ccc(/C=N/NC(=O)C(O)c2ccccc2)c(O)c1 (stereo not given) |  | active: 11.6 µM |
| COc1ccc2cc3cc(C(=O)NCc4ccco4)oc3nc2c1 |  | inconclusive [cytotoxic, partial curve] |
| COC(=O)Nc1ccc(S(=O)(=O)N2c3ccccc3CCC2C)cc1 (stereo not given) |  | inconclusive [cytotoxic, partial curve] |
| CCN(C(=O)COC(=O)c1c(C)c(-c2ccccc2)nc2ccccc12)C1CCS(=O)(=O)C1 (stereo not given) |  | inconclusive [cytotoxic, single point] |
| C[C@@H](NC(=O)[C@H]1O[C@@H](n2cnc3c(N)ncnc32)[C@H](O)[C@@H]1O)c1cccc2ccccc12 |  | inconclusive [cytotoxic, single point] |
| CCOc1ccc(N(Cc2cc3cc(OC)ccc3[nH]c2=O)S(C)(=O)=O)cc1 |  | inconclusive [cytotoxic, single point] |
| CCC(CO)Oc1cc(NCc2ccc(Cl)cc2Cl)c2ncn(C(C)C)c2c1 (stereo not given) |  | inconclusive [cytotoxic, single point] |
| O=S(=O)(Nc1ccc(-n2cccc2)cc1)c1ccc(Cl)cc1Cl |  | inconclusive [cytotoxic, single point] |
| COc1ccccc1N(Cc1ccccc1)S(=O)(=O)c1cccc(C(=O)Nc2ccccn2)c1 |  | inconclusive [cytotoxic, partial curve] |
| CC1(C)CC(=O)C=C(c2ccc(Oc3ccccc3)cc2)C1=O | inactive: 0.693% |  |

| SMILES | activity, negative = toxicity | Potency |
| --- | --- | --- |
| COc1cc(C(=O)NC(=S)NNC(=O)c2cnccn2)cc(OC)c1OC |  | active: 14.6 µM |
| COC(=O)c1c(NC(=O)C2COc3ccccc3O2)sc2c1CCN(C(C)=O)C2 (stereo not given) | inactive: -11.3% |  |
| CC1=C(C(=O)N2CCOCC2)CC(CC(=O)NCc2cccc3ccccc23)C(=O)N1Cc1ccc(C(C)(C)C)cc1 (stereo not given) |  | inconclusive [cytotoxic, single point] |
| CN1C(=O)/C(=C/c2ccccc2F)Sc2ccc(C(=O)N3CCCC3)cc21 |  | inconclusive [cytotoxic, single point] |
| CC1(c2ccccc2)NC(=O)N(CC(=O)N2CCN(S(=O)(=O)c3c(F)cccc3F)CC2)C1=O (stereo not given) | inactive: -2.65% |  |
| Cc1onc(-c2ccccc2)c1C(=O)N/N=C/c1ccc([N+](=O)[O-])s1 |  | inconclusive [cytotoxic, single point] |
| CCN1CCCC1CNC(=O)Cn1nc(C)n2nc(-c3ccccc3)cc2c1=O (stereo not given) | inactive: -6.29% |  |
| COc1ccc2[nH]c3c(=O)n(/N=C/[C@H]4C(C)C=C(C)CC4C)c(=O)[nH]c3c2c1 (stereo not given in full) |  | inconclusive [cytotoxic, single point] |
| CC(C)c1onc(C(=O)N(C)C2CCCCC2)c1[N+](=O)[O-] | inactive: -8.48% |  |
| C/C(=N\NC(=O)c1ccc(N/N=C(\C)c2ccc(O)cc2)cc1)c1ccc(O)cc1 |  | inconclusive [cytotoxic, partial curve] |
| O=C(C1=C[C@H](C2CC2)C[C@H](OCc2ccc(CO)cc2)O1)N1CCN(Cc2ccc3c(c2)OCO3)CC1 | inactive: -2.57% |  |
| CC(C)C[C@H](NC(=O)N1CCn2c1nc1ccccc12)C(=O)NCCc1ccccc1 | inactive: -20.1% |  |
| Brc1ccc2nc(-c3ccco3)c(Cc3ccccc3)n2c1 |  | inconclusive [cytotoxic, partial curve] |
| CNC(=O)c1ccccc1NC(=O)c1cccc(S(=O)(=O)N2CCCCC2)c1 | inactive: 20% |  |
| O=C1/C(=C\c2ccc(O)c(O)c2)SC(=S)N1Cc1ccccc1 |  | inconclusive [cytotoxic, single point] |
| COC(=O)c1nc2ccccn2c1F | inactive: 7.22% |  |
| C=CCC[C@@H](Cc1ccc(F)cc1)C(=O)OC[C@H](Cc1c[nH]c2ccccc12)NC(=O)[C@@H](CC=C)CC(=O)NCCO |  | inconclusive [cytotoxic, single point] |
| Cc1cccc(C(=O)Oc2csc(=S)n2C(=O)c2cccc(C)c2)c1 |  | active: 4.61 µM |
| CN(C)c1ccc(C(CNC(=O)c2ccc(C#N)cc2)c2c[nH]c3ccccc23)cc1 (stereo not given) | inactive: -26% |  |
| CC(=O)Oc1ccccc1/C=C/c1ccc2ccccc2[n+]1C |  | inconclusive [cytotoxic, single point] |
| CCOc1ccccc1CN1CCN(C/C=C/c2ccc(OC)cc2)CC1CCO (stereo not given) |  | inconclusive [cytotoxic, single point] |
| O=C1C[C@H]2[C@H](CO)[C@@H](OC(=O)c3ccc(-c4ccccc4)cc3)C[C@H]2O1 | inactive: -0.611% |  |
| FC(F)(F)Oc1ccc(NC(=S)Nc2ccc(OC(F)(F)F)cc2)cc1 |  | inconclusive [cytotoxic, single point] |
| COc1ccc(C(=O)Nc2ccccc2C(=O)N/N=C/c2cccc3ccccc23)cc1 |  | active: 18.4 µM |

| SMILES | activity, negative = toxicity | Potency |
| --- | --- | --- |
| OCC1OC(n2cnc3c(NCc4ccccc4O)ncnc32)C(O)C1O (stereo not given) |  | active: 9.2 µM |
| COc1ccc(Cl)cc1NC(=O)CN(C)C(=O)CN1C(=O)NC(C)(c2ccc3ccccc3c2)C1=O (stereo not given) |  | inconclusive [cytotoxic, single point] |
| CCOC(=O)c1c(NC(=O)CSc2nnc(C)s2)sc2c1CCCCC2 |  | inconclusive [cytotoxic, single point] |
| Cn1nc(C(F)(F)F)c(-c2ccc(F)cc2)c1NC(=O)Nc1ccc(F)cc1 |  | inconclusive [cytotoxic, single point] |
| CC(=O)Nc1cc(-c2ccccc2N(C)C)cn2c(-c3ccccc3)cnc12 |  | inconclusive [cytotoxic, single point] |
| O=C(N/N=C/c1ccc(N2CCCCC2)o1)c1ccccc1[N+](=O)[O-] |  | inconclusive [cytotoxic, single point] |
| c1coc(-c2ccnc3ncnn23)c1 | inactive: 18.8% |  |
| c1ccc(Oc2ccc(-c3ccnc4nc(N5CCOCC5)nn34)cc2)cc1 |  | inconclusive [cytotoxic, single point] |
| Cc1cc(NC(=O)c2cc(-c3cccc(OCC(C)C)c3)nc3ccccc23)no1 | inactive: -1.2% |  |
| O=C(Nc1nc2ccccc2s1)C1CC(=O)N(c2ccc(Br)cc2)C1 (stereo not given) | inactive: -0.794% |  |
| CCN(CC)S(=O)(=O)c1ccc(N/N=C(\C)c2ccc(OC)cc2O)nc1 |  | inconclusive [cytotoxic, single point] |
| CN(C)CCC1(C2=CCCC2)CC/C(=C/c2ccc(Cl)cc2)C1=O (stereo not given) |  | inconclusive [cytotoxic, single point] |
| CCCCCC(C)NC(=S)NC(=O)c1cc(S(=O)(=O)N2CCOCC2)ccc1C (stereo not given) | inactive: -21.2% |  |
| O=C(Nc1nc(-c2ccccn2)cs1)c1cc2ccccc2o1 |  | inconclusive [cytotoxic, single point] |
| COc1ccc(O)c(/C=N/NC(=S)Nc2cccc(S(=O)(=O)N(C)C)c2)c1 | inconclusive: -29.6% [cytotoxic] |  |
| Cc1ccccc1N1C(=O)c2cccc([N+](=O)[O-])c2C1=O |  | inconclusive [rising, single point] |
| O=C(O)c1cccc(NS(=O)(=O)/C=C/c2ccccc2)c1 | inactive: 0.272% |  |
| CCOC(=O)CSc1nc2c(sc(=S)n2CCc2ccccc2)c(=O)n1Cc1ccco1 |  | inconclusive [cytotoxic, single point] |
| Fc1cccc(NCCc2c[nH]c3ccccc23)n1 | inactive: -2.94% |  |
| O=C(/C=C/c1ccncc1)c1ccc(NC(=O)c2ccccc2F)cc1 |  | active: 9.2 µM |
| CN(C)S(=O)(=O)c1ccc(NC(=O)c2ccc3ncsc3c2)cc1 | inactive: -0.985% |  |
| CN(C)CCNC(=O)C(=O)Nc1ccc2c(c1)N(S(=O)(=O)c1cccs1)CCC2 |  | inconclusive [cytotoxic, single point] |
